{"source": "PubChem BioAssay AID686979", "about": "(National Center for Advancing Translational Sciences (NCATS), 2013)", "note": "In all, about 420,000 compounds went through this assay and about 50,000 (12%) were called active. Inconclusive means that the source gave no clear call. Such entries were picked first, then a sample of the others. Calls come from the whole dose curve; as a rule, active = well fitted inhibition curve with a large enough effect; inconclusive = small, poorly fitted or top-dose-only effect; inactive = flat fitted curve, though single readings scatter. No potency is given beside an inconclusive call; the fits are too rough."}
{"experiment": "qHTS for Inhibitors of human tyrosyl-DNA phosphodiesterase 1 (TDP1): qHTS in cells in presence of CPT; note: nearly all actives have a fitted effect of over 55% in size; note: potency is the fitted concentration of half-maximal effect; tags give direction and shape of the fitted curve; for activity change, negative = growth inhibition: % is set by controls: 0 for no effect and ±100 for the full control effect", "conditions": "chicken DT40 Tdp1-/-;hTDP1 cells + 20 nM CPT, ATP luminescence, 48 h; activity change, negative = growth inhibition: at 46.2 µM (top of the series) unless noted", "summary_of_the_method": "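Chicken DT40 Tdp1-/- cells stably complemented with human TDP1 were seeded at 400 cells/well in medium containing 20 nM camptothecin, exposed to pin-transferred compounds, and grown at 37 °C for at least 48 hr. Viability was read as ATP luminescence.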"}
{"compound": "COc1cc(C(=O)NCC(c2cccs2)S(=O)(=O)c2cccs2)cc(OC)c1OC", "note": "(stereo unspecified)", "Potency": "inconclusive [inhibitor, single point]"}
{"compound": "Cc1ccc(NS(=O)(=O)c2cccc(C(=O)NC3CC3)c2)c(C)c1", "Potency": "inactive"}
{"compound": "CCc1ccccc1NC(=O)c1cnc(N2CCCCC2)c2ccccc12", "Potency": "active: 18.4 µM"}
{"compound": "Cc1cc(=O)n(CC(=O)N2CCN(c3ccccc3F)CC2)c2c1c(C)nn2C", "Potency": "active: 16.4 µM"}
{"compound": "CCNC(=S)NNC(=O)CCn1c2ccccc2c2ccccc21", "Potency": "inconclusive [inhibitor, single point]"}
{"compound": "O=C(CCCl)Nc1nc2c(s1)CCc1ccccc1-2", "Potency": "active: 13 µM"}
{"compound": "COc1cc(C(=O)O[C@H]2C/C(C)=C/CC[C@@]3(C)O[C@@H]3[C@H](O)[C@@H]2C(C)C)cc(OC)c1OC", "Potency": "active: 16.4 µM"}
{"compound": "CCOC(=O)c1[nH]c(C)c(CCC(=O)Nc2cc(C)ccc2OC)c1C", "Potency": "inactive"}
{"compound": "COCCn1c(-c2cccs2)nc2nc3ccccc3nc21", "Potency": "inconclusive [inhibitor, single point]"}
{"compound": "COc1c(C)cc(C(O)c2ncc(-c3ccccc3F)[nH]2)cc1C", "note": "(stereo unspecified)", "Potency": "inconclusive [inhibitor, single point]"}
{"compound": "CC(C)(C)[C@H](N)C(=O)N[C@H]1CCC2C3CC=C4C[C@@H](O)CC[C@]4(C)C3CC[C@@]21C", "note": "(stereo partly specified)", "Potency": "active: 4.61 µM"}
{"compound": "CC(=O)N(c1ccccc1)C1CCCC1", "Potency": "inactive"}
{"compound": "Cc1ccccc1CN1CCC(CNC(=O)c2c(C)oc3ncnc(N4CCCCC4)c23)CC1", "Potency": "inactive"}
{"compound": "CC(=O)Nc1cccc(-c2csc(C(O)c3ccc(F)c(F)c3)n2)c1", "note": "(stereo unspecified)", "Potency": "inconclusive [inhibitor, single point]"}
{"compound": "O=C(O)c1ccc(N2CCCCS2(=O)=O)cc1", "Potency": "inactive"}
{"compound": "COC(=O)[C@]12CCCCC=C1N(Cc1ccc(Cl)cc1Cl)C(=O)[C@H](CC(=O)NCCc1ccccc1OC)C2", "Potency": "inconclusive [inhibitor, single point]"}
{"compound": "O=C(Nc1cc(S(=O)(=O)Nc2ccc(Cl)cc2)ccc1O)c1ccc(F)cc1F", "Potency": "inconclusive [inhibitor, single point]"}
{"compound": "CCN1C(=O)c2ccccc2S(=O)c2ccc(C(=O)N3CCN(c4cc(Cl)ccc4C)CC3)cc21", "note": "(stereo unspecified)", "Potency": "inconclusive [inhibitor, single point]"}
{"compound": "CN(Cc1ccccc1)C(=O)c1ccc2c(c1)N(Cc1ccccc1Cl)C(=O)c1ccccc1S2", "Potency": "inconclusive [inhibitor, single point]"}
{"compound": "COc1nnc(-c2ccc(N3CCCCC3)c(N)c2)c2ccccc12", "Potency": "active: 7.31 µM"}
{"compound": "CCOC(=O)c1c(N)sc(C(O)(C(F)(F)F)C(F)(F)F)c1-c1ccc(Cl)cc1", "Potency": "inconclusive [inhibitor, single point]"}
{"compound": "CN(C)S(=O)(=O)c1cccc(-c2nn(-c3ccccc3)cc2/C=C(/C#N)C(=O)NCc2ccco2)c1", "Potency": "active: 18.4 µM"}
{"compound": "COC(=O)c1c(NC(=O)CSc2ncnc3[nH]ncc23)sc2c1CCC2", "Potency": "inconclusive [inhibitor, partial curve, poor fit]"}
{"compound": "OC(COc1ccc(CNCCc2ccc(C(F)(F)F)cc2)cc1)CN1CCCCC1", "note": "(stereo unspecified)", "Potency": "active: 4.61 µM"}
{"compound": "Cc1cc(O)c(-c2ccno2)cc1Cl", "activity change, negative = growth inhibition": "inconclusive: -32.2% [inhibitor]"}
{"compound": "COC(=O)c1cc(=O)nc(NN=C2CCCCC2)s1", "Potency": "inactive"}
{"compound": "COc1ccc(S(=O)(=O)N2CCC(C(=O)N[C@H](C(=O)NCc3ccccc3)C(C)C)CC2)cc1", "Potency": "inactive"}
{"compound": "Fc1ccc(-c2noc3ncnc(NCc4ccc(Cl)cc4)c23)cc1", "Potency": "inconclusive [inhibitor, single point]"}
{"compound": "COC(=O)c1c(NC(=O)CSc2nc3nc(C)cc(C)n3n2)sc(C)c1C", "Potency": "inactive"}
{"compound": "CN=C1SC(C(=O)Nc2ccccc2Cl)CC(=O)N1c1ccc(OC(F)(F)Cl)cc1", "note": "(stereo unspecified)", "Potency": "inactive"}
{"compound": "CCCCNC(=O)c1ccc(CS(=O)(=O)c2ccc(OC)cc2)o1", "Potency": "inconclusive [inhibitor, single point]"}
{"compound": "CSc1ccccc1OCc1cc(C(=O)NC2CCOC(C)(C)C2)no1", "note": "(stereo unspecified)", "Potency": "inconclusive [inhibitor, single point]"}
{"compound": "Cc1ccc(NC(=O)c2ccc(OC(F)F)cc2)cc1S(=O)(=O)N(C)C", "Potency": "inconclusive [inhibitor, single point]"}
{"compound": "CCN(C(=O)COC(=O)/C=C/c1c(C)nn(-c2ccccc2)c1C)c1c(N)n(Cc2ccccc2)c(=O)[nH]c1=O", "Potency": "inconclusive [inhibitor, single point]"}
{"compound": "CN1CCc2[nH]c3ccc(Cl)cc3c2C1", "Potency": "inactive"}
{"compound": "CCOc1ccc(-n2nc3ccc(NC(=O)c4ccc5c(c4)OCCO5)cc3n2)cc1", "Potency": "active: 3.26 µM"}
{"compound": "O=C(Cc1ccccc1)NC(Nc1cccc2ccccc12)C(Cl)(Cl)Cl", "note": "(stereo unspecified)", "Potency": "inconclusive [inhibitor, single point]"}
{"compound": "Cc1ccsc1C(=O)OC(C)C(=O)Nc1ccc(Cl)cn1", "note": "(stereo unspecified)", "Potency": "inconclusive [inhibitor, single point]"}
{"compound": "COc1ccc(/C(C)=N/Nc2ccc(F)cc2F)c(O)c1", "Potency": "inactive"}
{"compound": "O=C(Nc1ccccc1OC(F)F)c1ccc(S(=O)(=O)N2CCOCC2)cc1", "Potency": "inactive"}
{"compound": "COc1cccc(NC(=O)N(C)C[C@@H]2OCc3cnnn3CCCC(=O)N([C@@H](C)CO)C[C@H]2C)c1", "activity change, negative = growth inhibition": "inconclusive: -7.06% [inhibitor]"}
{"compound": "OC(c1ccc(Cl)c(Cl)c1)c1ncc(-c2ccccc2F)[nH]1", "note": "(stereo unspecified)", "Potency": "inconclusive [inhibitor, single point]"}
{"compound": "O=[N+]([O-])c1ccc(Nc2nc(N/N=C\\c3ccc4c(c3)OCO4)nc(N3CCCCC3)n2)cc1", "Potency": "active: 20.6 µM"}
{"compound": "Clc1cccc(CN2CCN(c3nc4nonc4nc3NC3CC3)CC2)c1", "Potency": "inconclusive [inhibitor, single point]"}
{"compound": "COc1ccc(C(O)c2nc(-c3cccc(CO)c3)cs2)cc1", "note": "(stereo unspecified)", "Potency": "inconclusive [inhibitor, single point]"}
{"compound": "C[C@H]1CN([C@@H](C)CO)C(=O)c2cc(-c3ccccc3F)cnc2O[C@@H]1CN(C)C(=O)NC1CCCCC1", "Potency": "inconclusive [inhibitor, partial curve]"}
